Results as given in PubChem BioAssay AID1345083 (National Center for Advancing Translational Sciences (NCATS), 2018).
Hit rate of the full screen: of about 94,000 compounds, about 6,200 (6.6%) were called active. This list was built around the results that the source calls inconclusive (neither active nor inactive); the mix of calls is not that of the screen. Calls come from the whole dose curve; as a rule, active = well fitted inhibition curve with a large enough effect; inconclusive = small, poorly fitted or top-dose-only effect; inactive = flat fitted curve, though single readings scatter. Potencies of inconclusive entries are doubtful fits and often do not repeat.

Test: Cytotoxic Profiling in HEK 293 Cell Line of Diverse Libraries Using Quantitative High-Throughput Screening; note: nearly all actives have a fitted effect of over 60% in size
Settings: HEK 293 viability, ATP luminescence (CellTiter-Glo), 48-72 h; activity change, negative = cytotoxicity: at 115 µM (top of the series) unless noted; series mostly up to 115 µM
How it was run: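 Luminescence from cellular ATP, measured with CellTiter-Glo, indicates HEK 293 viability. Cells plated at 250 cells/well are treated with compound for 48 or 72 hr at 37 degree Celsius before reagent addition.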
% is set by controls: 0 for no effect and ±100 for the full control effect; potency is the fitted concentration of half-maximal effect; tags give direction and shape of the fitted curve.

Structure (SMILES) | Potency | activity change, negative = cytotoxicity
COc1ccc(CN2C=C(C(=O)OCc3noc(-c4ccc(C)c(C)c4)n3)C(C)=NS2(=O)=O)cc1 | inconclusive: 15.8 µM [inhibitor, full curve, poor fit] | 
COCc1ccc2c(c1)c(OC(C)(C)C(=O)Nc1ccccc1)nn2Cc1cccnc1 | inconclusive: 112 µM [inhibitor, partial curve] | 
CCOc1ccccc1C(=O)N1CCC2(CC1)NC(=O)N(Cc1ccccc1)C2=O |  | inactive: -21.5%
CSc1ccc(-c2cccc(C(=O)NCCNC(=O)Cc3ccc(F)cc3)c2)cc1 | inconclusive: 50.1 µM [inhibitor, partial curve, poor fit] | 
O=C(Nc1ccccc1)C1=NO[C@@H]2CN(Cc3cccc(O)c3)C[C@H]12 | inconclusive: 50.1 µM [inhibitor, partial curve, poor fit] | 
Cc1ccc(C(=O)N2CCc3sc(C(=O)NCc4ccc(C)o4)cc3C2)cc1 | inconclusive: 56.2 µM [inhibitor, partial curve, poor fit] | 
O=C(OCc1ccccc1)N1CCOCC12CCN(Cc1ccncc1Cl)CC2 | inconclusive: 100 µM [inhibitor, partial curve, poor fit] | 
COc1cccc(CN2CCC(N3Cc4cnc(C)n4C3=O)CC2)c1 | inconclusive: 79.4 µM [inhibitor, partial curve] | 
O=C1CC2(CCN(C(=O)C3CCCN3C(=O)Cc3cccc(Cl)c3)CC2)Oc2ccccc2N1 (stereo not given) | inconclusive: 50.1 µM [inhibitor, partial curve, poor fit] | 
Cc1csc(S(=O)(=O)N2CCOC(CCc3ccccc3)C2)c1 (stereo not given) | inconclusive: 79.4 µM [inhibitor, partial curve] | 
O=C(c1ccc(C(F)(F)F)cc1)N1CCC(N2CC3CC(C2)[C@H]2CCCC(=O)N2C3)CC1 (stereo not given in full) | inconclusive: 35.5 µM [inhibitor, full curve, poor fit] | 
Cc1ccc(-c2cccc(CN3CCCC3C(=O)N(C)C)c2)cc1Cl (stereo not given) | inconclusive: 50.1 µM [inhibitor, partial curve, poor fit] | 
COC[C@@H]1CN(Cc2cccc(OC)c2OC)C[C@H]1c1ccncc1 | active: 39.8 µM | 
Cc1nc(N2CCC(NC(=O)c3ccc(F)cc3)CC2)cc(C(F)(F)F)n1 | inconclusive: 89.1 µM [inhibitor, single point] | 
COc1ccc(N2CCN(C(=O)c3cc4c(s3)CCN(C(C)=O)C4)CC2)cc1 | inconclusive: 39.8 µM [inhibitor, partial curve, poor fit] | 
CC(=O)Nc1ccc(CN2C(=O)OC3(CCN(C(=O)C(C)C)CC3)C2(C)c2ccccc2)cc1 (stereo not given) | inconclusive: 50.1 µM [inhibitor, partial curve, poor fit] | 
Cc1nc(N2CCN(C(=O)C(C)Oc3ccccc3)CC2)cc(C(F)(F)F)n1 (stereo not given) | inconclusive: 25.1 µM [inhibitor, full curve] | 
COc1ccccc1-c1cccc(CN2CCCC(C(=O)N(C)C)C2)c1 (stereo not given) | inconclusive: 100 µM [inhibitor, partial curve, poor fit] | 
Cn1nc(C2CCN(C(=O)Cc3ccc(F)cc3)CC2)[nH]c1=O |  | inactive: -4.16% [at 172 µM]
CCC(C(=O)NC1CCN(c2cc(C(F)(F)F)nc(C)n2)CC1)c1ccccc1 (stereo not given) | inconclusive: 70.8 µM [inhibitor, single point] | 
Cc1cc(C(=O)N2CCC(Oc3ccc(C(=O)NC4CCCC4)cc3Cl)CC2)n(C)n1 | inconclusive: 89.1 µM [inhibitor, partial curve, poor fit] | 
Cc1ccsc1CN1CCC(Oc2ccccc2-c2nc(-c3ccncc3)no2)C1 (stereo not given) | active: 25.1 µM | 

Structure (SMILES) | Potency | activity change, negative = cytotoxicity
Cc1noc2c(NC3CCN(C)CC3)cc(-c3cccs3)nc12 | active: 79.4 µM | 
Cn1ncc2c(C(=O)NCC#N)cc(-c3ccccc3C(F)(F)F)nc21 |  | inactive: -25.6%
COc1ccc(Nc2cnc3ccc(N(C)Cc4cccnc4)nn23)cc1OC | inconclusive: 89.1 µM [inhibitor, partial curve, poor fit] | 
Cc1ccc(NC(=O)CCC[C@H]2NC[C@@H]3C[C@H]2CN(Cc2ccccc2)C3)cc1 | inconclusive: 56.2 µM [inhibitor, partial curve, poor fit] | 
COc1cccc(CCC2CCCN(C(=O)c3ccsc3)C2)c1 (stereo not given) | inconclusive: 50.1 µM [inhibitor, partial curve, poor fit] | 
Cc1ccc2oc([C@H]3CCN(Cc4c[nH]c5ccccc45)C3)nc2c1 | active: 31.6 µM | 
COc1ccc(C2Cn3nnc(-c4noc(-c5ccc[nH]5)n4)c3CO2)cc1 (stereo not given) | inconclusive: 56.2 µM [inhibitor, partial curve, poor fit] | 
C=CCOc1c(OC)ccc2c1CN(C1CCCC1)C(=O)CCN2C[C@@H](O)COCc1ccccc1 | inconclusive: 50.1 µM [inhibitor, partial curve, poor fit] | 
Cn1cc(-c2cnc3[nH]cc(CC(=O)NCc4ccncc4)c3c2)cn1 |  | inactive: -10% [at 172 µM]
COCC(=O)N(C1CCOCC1)C1CCN(C(=O)Cc2ccc(OC)cc2)CC1 |  | inactive: 18%
O=C(NCc1cccc(C(F)(F)F)c1)C1CCN(Cc2ccccc2-c2ccccc2F)CC1 | active: 25.1 µM | 
O=C(Cc1ccc(N(Cc2cccc(F)c2)C(=O)c2ccco2)cc1)Nc1ccccc1 | active: 44.7 µM | 
COCC(=O)N1CCN(c2nccc(Nc3ccccc3Cl)n2)CC1 |  | inactive: -26.9%
CN(Cc1ccc(-c2ccccc2)cc1)C(=O)Nc1ccccc1 | inconclusive: 63.1 µM [inhibitor, full curve] | 
CC(C)(O)CCc1cccc(C(=O)NCCOc2cccc3cccnc23)c1 | inconclusive: 50.1 µM [inhibitor, partial curve, poor fit] | 
CN1CCN(Cc2cn3c(=O)n(C)cc(-c4cccc(N(C)C)c4)c3n2)CC1 | inconclusive: 100 µM [inhibitor, partial curve] | 
O=C(NCc1ccc(C(F)(F)F)cc1)c1nc2cccnc2n(C2CC2)c1=O | inconclusive: 50.1 µM [inhibitor, partial curve, poor fit] | 
COCC(=O)N1CCC(C(=O)N2CCC(c3nc4ncccc4[nH]3)CC2)CC1 |  | inactive: -9.03%
Cc1cnc(-c2ccccc2)n1CC1CCN(S(=O)(=O)Cc2ccccc2F)CC1 | inconclusive: 31.6 µM [inhibitor, full curve, poor fit] | 
O=C(C1CCCCC1)N1CC[C@H](c2nnc(-c3cccnc3)o2)C1 |  | inactive: -7.48% [at 172 µM]
Cc1cc(CN(C)C(=O)c2cc(COc3ccc(F)cc3F)on2)on1 | inconclusive: 63.1 µM [inhibitor, partial curve, poor fit] | 
COC1CCN(C(=O)c2ccnc(-c3nnc4ccc(Nc5ccccc5)nn34)c2)CC1 | active: 89.1 µM | 

Structure (SMILES) | Potency | activity change, negative = cytotoxicity
CNC(=O)[C@@H]1C[C@H](Oc2ccccc2)CN1C(=O)CCc1nc2ccccc2[nH]1 |  | inactive: -16.2%
COc1ccc(C2=NOC3(CCCN(C(=O)Cc4ccccc4)C3)C2)cc1 (stereo not given) |  | inactive: -22.5%
CCCNC1(Cc2cc(COc3ccccc3)on2)COC1 |  | inactive: -2.88% [at 172 µM]
O=C1NC2(CCN(C(=O)c3ccc(C(F)(F)F)cc3)C2)Oc2ccccc21 (stereo not given) | inconclusive: 89.1 µM [inhibitor, single point] | 
COC(=O)c1ccc(CNCC2=CC(C)(C)COc3ccc(OC)cc32)cc1 | inconclusive: 44.7 µM [inhibitor, partial curve, poor fit] | 
COC1CCC12CCN(Cc1cccc(C#N)c1)CC2 (stereo not given) |  | inactive: -2.17%
CC(C)N1C(=O)C2(CCCC2)C1C(=O)N(C)Cc1cccnc1 (stereo not given) |  | inactive: -5.85%
Cc1c(-c2ccc(F)cc2)[nH]c2ccc(CNC(=O)[C@@H]3CCCO3)cc12 | active: 50.1 µM | 
COc1ccc(CN2CC3(CCN(C(=O)c4cccs4)CC3)C2=O)cc1 | inconclusive: 89.1 µM [inhibitor, single point] | 
COC(=O)[C@@H]1Cc2c([nH]c3ccccc23)[C@H]2C[C@H](NCCN3CCOCC3)C[C@@H](c3ccc(F)cc3)N21 | active: 20 µM | 
COc1cccc(C(=O)Nc2cc(-c3ccncc3)nn2-c2ccccc2)c1 | inconclusive: 44.7 µM [inhibitor, partial curve, poor fit] | 
O=C(c1ccc(Cl)cc1)N1CCC2(CC1)C(=O)NCN2CCc1ccccc1 |  | inactive: -15.6%
FC(F)(F)c1ccc(CN2CC[C@H](c3nc4cc(Cl)ccc4o3)C2)cc1 | inconclusive: 100 µM [inhibitor, partial curve, poor fit] | 
COCC1CN(C2CCC2)CC12CCN(C(=O)NCCc1ccccc1)CC2 (stereo not given) | inconclusive: 44.7 µM [inhibitor, full curve, poor fit] | 
COc1cc2c(cc1OC)C(CNC(=O)c1cccc(F)c1)N(C(=O)Nc1ccc(C)cc1)CC2 (stereo not given) | inconclusive: 35.5 µM [inhibitor, partial curve, poor fit] | 
NCCn1cc(C(=O)NCc2cccnc2Oc2cccc(C(F)(F)F)c2)nn1 |  | inactive: -6.96%
O=C(O)c1ccc([S+](=O)([O-])N2CC(COc3ccccc3)C3(CN(c4ccccc4)C3)C2)cc1 (stereo not given) |  | inactive: -32.2%
COc1ccccc1Nc1ccnc(N2CCC(NC(=O)c3ccccc3OC)CC2)n1 | inconclusive: 50.1 µM [inhibitor, partial curve, poor fit] | 
O=C(NCCC1=CCCCC1)C1CCN(C(=O)N2CC3CC(C2)[C@H]2CCCC(=O)N2C3)CC1 (stereo not given in full) |  | inactive: -12.1%
Cc1cc(=O)n(CC(=O)Nc2cccc(C)c2C)c(N2CCc3ccccc3C2)n1 | inconclusive: 89.1 µM [inhibitor, single point] | 
Cn1nc(C(=O)NC2CC2)c2c1CN(C(=O)Cc1cccc(F)c1)C2 |  | inactive: -24.3%
